In the supplement of paper PMC4166925:
± gives the standard deviation of the averaged measurements. Whole data set: some 33,000 sequences, median “E-score (dimensionless, -0.5 to 0.5)” near -0.046, cut for the highest 2% near 0.36. The list shows a part of the results.

test system: T1, SpTbr T-box DNA-binding domain (GST fusion); assay: PBM E-score of 8-mer (E-score (dimensionless, -0.5 to 0.5)); Tbr is Tbrain of the sea star Patiria miniata (Pm) or the sea urchin Strongylocentrotus purpuratus (Sp); higher = stronger binding preference; most listed sequences are background and not binding sites; settings: the construct has about 5 more residues each side
T1 sequence: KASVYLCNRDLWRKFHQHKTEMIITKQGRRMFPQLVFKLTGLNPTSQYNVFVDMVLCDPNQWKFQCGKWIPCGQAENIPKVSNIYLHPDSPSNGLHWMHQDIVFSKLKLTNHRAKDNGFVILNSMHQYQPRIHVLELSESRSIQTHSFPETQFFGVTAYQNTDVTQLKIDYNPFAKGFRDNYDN
Method in brief: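 Primer extension turned Universal Agilent oligonucleotide arrays double-stranded. They were incubated with 200 nM protein in PBS (pH 7.5); the protein was a GST-fused Tbr T-box DNA-binding domain expressed in BL21 E. coli at 20 °C and purified on glutathione. Every ungapped 8-mer was scored from the scanned, quantified probe intensities, and the Universal PBM Analysis Suite gave each an enrichment E-score averaged over duplicate arrays.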

Sequence	PBM E-score of 8-mer
ACAGCGAG	0.197 ± 0.029
CCACGTGA	0.113 ± 0.019
GTGGGCAA	-0.0347 ± 0.096
AAGTCGCC	-0.127 ± 0.096
CAGGCAAA	-0.369 ± 0.059
GCGCTAAC	0.388 ± 0.007
CCTGGACC	-0.2 ± 0.043
ATCGGAAC	-0.127 ± 0.035
ACCCCACG	-0.0697 ± 0.0027
ACGTCTAC	-0.177 ± 0.071
CCAGAGCG	-0.227 ± 0.069
AAATCCCC	-0.248 ± 0.063
CTAACTAA	0.173 ± 0.011
AGCCTGAA	-0.138 ± 0.022
ATGCTCGC	0.167 ± 0.0036
AACTTGGC	0.0887 ± 0.0052
ACTGACGG	0.1294 ± 0.00097
ACTCCCTC	0.0103 ± 0.022
ACCATTGG	-0.124 ± 0.049
GACGCATA	0.00443 ± 0.039
AACGCCTA	0.298 ± 0.038
ACACACTC	0.307 ± 0.019

Sequence	PBM E-score of 8-mer
CATGAATA	-0.2237 ± 0.0016
ATCACACA	0.425 ± 0.017
CATCGACA	0.222 ± 0.013
AAGTGTGG	0.417 ± 0.013
AGGCCTGC	-0.174 ± 0.026
AGTCCTCG	-0.0622 ± 0.058
GGAGCGGA	-0.219 ± 0.0072
CGGGAACG	0.0813 ± 0.004
ACCCCGAG	-0.103 ± 0.051
CAACCCGG	-0.0361 ± 0.034
TGATCAAA	-0.209 ± 0.029
ATAGTAAA	-0.248 ± 0.05
GAAATAGC	0.141 ± 0.044
AACCGCCA	0.0837 ± 0.013
CCAGTCAC	0.0388 ± 0.0065
CTGCGGCA	0.00565 ± 0.019
CGTTACCC	0.165 ± 0.034
GACGTACA	0.0653 ± 0.026
GTTTCAGA	-0.0787 ± 0.024
ACCCAAGA	-0.123 ± 0.0028
AGCGAGCC	-0.0938 ± 0.044
AGAGAGTC	-0.214 ± 0.05

Sequence	PBM E-score of 8-mer
CCGTCGGC	0.0545 ± 0.058
AAAATTGC	-0.00789 ± 0.088
CATCGAGA	0.185 ± 0.04
CAATGGTG	0.1615 ± 0.00032
ATGGTTCC	-0.179 ± 0.0087
GTGGGAGA	0.132 ± 0.075
CGACCGAG	-0.0379 ± 0.051
CAACTTGC	0.182 ± 0.016
CGCGCACA	0.135 ± 0.088
AAAATGTC	0.00526 ± 0.046
AGCTCTGG	-0.196 ± 0.077
ATGCTAAC	0.0372 ± 0.018
ACTCCGAC	-0.0256 ± 0.077
CCACCTAA	0.134 ± 0.083
AGACCGCT	-0.121 ± 0.073
CTCAGAAG	-0.183 ± 0.022
ACGGGTGG	0.0181 ± 0.18
CATAACAA	0.00154 ± 0.064
AACGGAGC	0.0219 ± 0.041
GGCTGCCA	0.0487 ± 0.026
CCCCGTAC	-0.0405 ± 0.0072
CACACGTC	0.451 ± 0.0092

Sequence	PBM E-score of 8-mer
AAGTCACT	-0.116 ± 0.06
ACTCCCGG	-0.0315 ± 0.0073
CAGATGTC	-0.00265 ± 0.028
GATGGAGA	-0.152 ± 0.0066
CCTCCCTA	-0.15 ± 0.043
CTCAGCTC	-0.0312 ± 0.062
ATGACAGC	0.0816 ± 0.054
GAGGAAGC	-0.126 ± 0.022
CTCTACCC	-0.172 ± 0.092
ACGGGGCC	-0.189 ± 0.021
CTTTAAGC	-0.136 ± 0.004
CTCGATCC	-0.175 ± 0.13
CGACCAAC	0.0436 ± 0.066
AATACTAG	-0.127 ± 0.078
AAGATCTC	0.0605 ± 0.0099
GGGAACAC	0.188 ± 0.0032
ACCCATGC	0.0143 ± 0.024
TCATCAGA	0.105 ± 0.044
AGACACCG	0.0814 ± 0.026
GGTGGTAC	0.171 ± 0.008
